Measurements reported in PubChem BioAssay AID504706 (National Center for Advancing Translational Sciences (NCATS), 2011).
Screen size: about 320,000 compounds; about 200 (0.062%) were called active. Inconclusive means that the source gave no clear call. Such entries were picked first, then a sample of the others. Calls follow the shape of the dose curve; as a rule, active = well fitted activation curve with a large enough effect; inconclusive = small, poorly fitted or top-dose-only effect; inactive = no such curve, though single readings can be large or run the other way. Potencies of inconclusive entries are left out as doubtful fits.

Test: qHTS assay for re-activators of p53 using a Luc reporter; also: nearly all actives have a fitted effect of over 45% in size; as to activity change, positive = activation: % of control where 0% means no effect
Conditions: H1299 p53-A138V BP100-luciferase reporter, luminescence, 24 h; series mostly up to 92.2 µM; activity change, positive = activation: at the top concentration
Outline: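 H1299 (p53-null), stable ts p53-A138V + BP100-Luc; 1000 cells/well, Opti-MEM/10% FBS; cpd 4 pt, 1:5; 24 h, 37 deg C, 5% CO2; detection reagent 10 min RT; luminescence.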
Potency is read from the fitted curve at half-maximal effect; tags tell the direction and shape of the fitted curve.

Structure (SMILES) | Potency | activity change, positive = activation
CCN(CC)c1nc(SCCOC(=O)Nc2ccccc2)nc(N(CC)CC)n1 | inconclusive [activator, partial curve, poor fit] | –
Cc1occc1C(=O)NC1CCCCCC1 | inconclusive [activator, single point] | –
CCOc1ccc(C2/C(=C(\O)c3ccc4c(c3)OCCO4)C(=O)C(=O)N2CCCN2CCOCC2)cc1OC (stereo not given) | – | inactive: 0.596%
COc1ccc(/C=C2\SC(=S)N(CC(=O)N(C)C3CCS(=O)(=O)C3)C2=O)cc1 (stereo not given) | inconclusive [activator, partial curve, poor fit] | –
Nc1nc2ccc(Oc3ccccc3)cc2s1 | inconclusive [activator, partial curve, poor fit] | –
CCC1S/C(=N/C(=O)NC2CCCCC2)NC1=O (stereo not given) | inconclusive [activator, partial curve, poor fit] | –
Cc1ccc(OCC(=O)N2CCCCCC2)c(C)c1 | inconclusive [activator, partial curve, poor fit] | –
CCC(C)C1C(C#N)=C(N)Oc2n[nH]c(C)c21 (stereo not given) | inconclusive [activator, single point] | –
CC(C)CN1CCCC(N2CCN(c3cccc(Cl)c3)CC2)C1 (stereo not given) | inconclusive [activator, full curve, poor fit] | –
CCOC(=O)C1CCN(C(=O)c2cc(COc3ccc(OC)c4ccccc34)on2)CC1 | inconclusive [activator, partial curve, poor fit] | –
O=c1cc(N2CCOCC2)cnn1-c1ccccc1 | inconclusive [activator, partial curve, poor fit] | –
O=C(CSc1nnc(-c2ccccc2F)o1)NC1CC1 | inconclusive [activator, partial curve, poor fit] | –
O=C(c1cc2cc(Cl)cc(Cl)c2oc1=O)N1CCOCC1 | inconclusive [activator, single point] | –
Cc1ccc(C(=O)Nc2ncc(Cc3ccc(SC(F)F)cc3)s2)cc1 | inconclusive [activator, partial curve, poor fit] | –
CCOC(=O)c1cnc2ccc(OC)cc2c1NCCc1ccc(OC)c(OC)c1 | – | inactive: 2.55%
Cc1ccc(/C=N/NC(=O)c2ccccn2)o1 | inconclusive [activator, full curve, poor fit] | –
Cc1ccc(C(=O)CCNc2ccc(F)c(Cl)c2)o1 | inconclusive [activator, full curve] | –
CC(C)(C)Nc1nc(-c2ccc3c(c2)CCN3C(=O)C2CC2)cs1 | inconclusive [activator, full curve, poor fit] | –
Cc1cccn2c(=O)c(C=NCc3ccccc3)c(NCCO)nc12 | – | inactive: -2.18%
Clc1ccc(-c2cc(COc3ccccc3)on2)cc1 | – | inactive: 21.7%
Cc1ccnc(NC(=O)c2ccoc2C)c1 | inconclusive [activator, partial curve, poor fit] | –
CCc1cccc(NC(=O)c2cnn(-c3ccccc3)c2C)c1 | inconclusive [activator, partial curve, poor fit] | –
Cc1ccc(-c2noc(-c3c(C)noc3C)n2)cc1 | – | inactive: 4.45%
O=C(NC(=S)Nc1ccccc1Br)c1ccc2c(c1)OCO2 | inconclusive [activator, partial curve, poor fit] | –

Structure (SMILES) | Potency | activity change, positive = activation
CCCCN1C(=O)/C(=C2/Sc3ccc(OC)cc3N2CC)SC1=S | inconclusive [activator, single point] | –
Nc1c(C(=O)O)cnc2c(-c3ccc(Cl)cc3)cnn12 | inconclusive [activator, partial curve, poor fit] | –
COc1ccccc1-c1noc(-c2ccccc2)n1 | inconclusive [activator, full curve, poor fit] | –
CCOC(=O)c1c(C)[nH]c(C(=O)COC(=O)c2ccc([N+](=O)[O-])o2)c1C | inconclusive [activator, single point] | –
Cc1ccc(Cl)cc1N1CCN(S(=O)(=O)c2c(C)noc2C)CC1 | – | inactive: -0.175%
Cc1ccc2c(c1)C(=O)C(=O)N2Cc1ccc(Br)cc1 | – | inactive: -4.28%
CC(=O)c1ccc(N(CC(=O)NC2CCCC2)C(=O)CNC(=O)c2ccco2)cc1 | – | inactive: -3.53%
O=C1NC(c2ccccc2)=N/C1=C/c1ccco1 | inconclusive [activator, partial curve, poor fit] | –
NNc1nc2sc3c(c2c(=O)[nH]1)CCc1ccccc1-3 | – | inactive: -10.7%
O=C(Nc1ncccc1O)c1ccc2c(c1)OCO2 | inconclusive [activator, partial curve, poor fit] | –
CCOc1ccc(S(=O)(=O)Nc2cccc(-c3ccc(N4CCCCCC4)nn3)c2)cc1 | inconclusive [activator, partial curve, poor fit] | –
COc1ccccc1NC(=O)COC(=O)/C=C/c1cccs1 | – | inactive: -2.03%
Cc1ccc(C(=O)NCCc2cccc(Cl)c2)cc1[N+](=O)[O-] | inconclusive [activator, partial curve, poor fit] | –
CCN(CC)CCN1C(=O)C(=O)/C(=C(/O)c2cnn(-c3ccccc3)c2C)C1c1ccc(C)o1 (stereo not given) | inconclusive [activator, partial curve, poor fit] | –
Cc1ccc(-n2c(C)cc(/C=C3\SC(=O)NC3=O)c2C)cc1 | inconclusive [activator, full curve, poor fit] | –
COc1ccc2oc(C(=O)OC/C(O)=C(\C#N)c3nc4ccccc4[nH]3)c(C)c2c1 | – | inactive: 4.57%
CCNC(=S)NNc1nnc(-c2ccccc2)c(-c2ccccc2)n1 | – | inactive: 7.85%
Oc1ccc(/C=C/c2ccc3cccc(O)c3n2)cc1Br | inconclusive [activator, partial curve, poor fit] | –
C=CCN(C(=O)Cc1cccs1)c1nc(-c2ccc(S(C)(=O)=O)cc2)cs1 | inconclusive [activator, partial curve, poor fit] | –
O=C(Nc1ccccc1)c1ccc(-c2ccc(Br)cc2)o1 | inconclusive [activator, partial curve, poor fit] | –
CN(C(=O)COc1ccc(Cl)cc1Br)C1CCCCC1 | inconclusive [activator, single point] | –
Cc1ccccc1/C=N/NC(=O)c1sccc1C | inconclusive [activator, partial curve, poor fit] | –
COCCn1c(SCC(=O)NC2CCCC2)nnc1-c1ccco1 | – | inactive: 1.67%
Cc1ccc(CNc2nc(C)c(C(=O)N(C)C)s2)cc1 | inconclusive [activator, single point] | –

Structure (SMILES) | Potency | activity change, positive = activation
Cc1ccnc(NC(=O)CCNC(=O)c2ccccc2Cl)c1 | inconclusive [activator, partial curve, poor fit] | –
Cc1cc(C)c(OCC(=O)Nc2ccc3c(c2)OCO3)cc1C | – | inactive: 11.9%
Cc1ccc(S(=O)(=O)Nc2c(Cl)c(Cl)c(O)c3ccccc23)cc1 | – | inactive: -90.7%
Cc1ccc(NC(=O)CSc2nnc(CNC(=O)c3ccco3)n2C)c(C)c1 | – | inactive: 8.36%
CN(C(=O)COC(=O)c1nc(Cl)c(Cl)c(Cl)c1Cl)C1CCS(=O)(=O)C1 (stereo not given) | – | inactive: -8.01%
O=C(Cc1ccon1)c1ccc(O)cc1O | – | inactive: 0.0673%
CC(C)c1cc(C(=O)Nc2ccc3c(c2)OCO3)no1 | inconclusive [activator, partial curve, poor fit] | –
C/C(=N\NC(=O)C1COc2ccccc2O1)c1ccccn1 (stereo not given) | inconclusive [activator, partial curve, poor fit] | –
O=C(Nc1ccc2c(c1)OCCO2)C(=O)c1c[nH]c2ccccc12 | – | inactive: -5.15%
COc1cc(SC#N)ccc1N=Cc1c(C)[nH]n(-c2cccc3ccccc23)c1=O | – | inactive: 4.12%
COc1cccc(CNC(=O)c2ccc(NS(=O)(=O)c3ccc4[nH]c(=O)[nH]c4c3)cc2)c1 | inconclusive [activator, single point] | –
COc1cccc(N/C(C)=C/C(=O)c2ccc(Br)cc2)c1 | inconclusive [activator, full curve, poor fit] | –
CSC(=NC#N)N1CCN(c2ccc([N+](=O)[O-])cc2)CC1 | – | inactive: 4.46%
COC(=O)c1c(C)noc1-c1cc(C)on1 | inconclusive [activator, partial curve, poor fit] | –
CC(C)N1C(=O)S/C(=C\c2ccc(-c3ccc(Cl)c(C(=O)O)c3)o2)C1=O | inconclusive [activator, partial curve, poor fit] | –
O=C(NNc1cccc(Cl)n1)C1CC1 | inconclusive [activator, single point] | –
O=C(O)c1cc(C2CC2)nn1-c1ccccc1 | – | inactive: -0.564%
N#CCCNS(=O)(=O)c1ccc(C(=O)OCC2CCCCC2)cc1 | – | inactive: -0.0635%
O=C(NCCCN1CCCC1=O)Nc1ccc(F)c(Cl)c1 | inconclusive [activator, single point] | –
O=C(Oc1ccccc1/C=C\C(=O)c1cc2ccccc2o1)c1cccc(F)c1 | inconclusive [activator, full curve, poor fit] | –
CS(=O)(=O)CCC(C(=O)Nc1ccc2c(c1)OCO2)N1Cc2ccccc2C1=O (stereo not given) | inconclusive [activator, partial curve, poor fit] | –
CN(C)c1ccc(NC(=O)Cn2cc3c(n2)CCCC3)cc1 | inconclusive [activator, partial curve, poor fit] | –
